Each structure is given as a SMILES string.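 Step 1: Grow cells in 96-well plates. Step 2: Expose to compound for 48 hours at 5 concentrations. Step 3: Interpolate endpoints linearly; if unreached, use highest concentration. GI50 is the concentration that inhibits growth by half.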 Calls of active or inactive are those of the source. Rule as the data show it: active = GI50 up to about 1.1 µM and inactive = higher.

For the assay, the system named is NCI-H322M. Kind of assay: inhibition of tumour cell growth, NCI panel, 48 h.
With `CN(C)c1ccc(C(=O)NCCCCCCC(=O)NO)cc1`, the GI50 was active: 0.824 µM.

Take `OCC1CCCC(n2cnc3c(S)ncnc32)O1` (stereo not drawn): the GI50 is inactive: > 100 µM.

Turning to `CC(=O)OC1COC(N2CCc3ccccc32)C(OC(C)=O)C1OC(C)=O` (stereo not drawn), the GI50 was inactive: > 100 µM.

As to `COc1cc(/C=C/c2ccc(/C=C/c3cc(OC)c(OC)c(OC)c3)cc2)cc(OC)c1OC`, the GI50 was inactive: 33.6 µM.

In the case of `O=C1/C(=C\c2ccccc2)CN(C(=O)CCN2CCCCC2)C/C1=C/c1ccccc1`, the GI50 was inactive: 2.12 µM.

Turning to `CC12CCC3C(CCC4=CC(O)CCC43C=O)C1(O)CCC2c1ccc(=O)oc1` (stereo not drawn), the GI50 was active: 0.0153 µM.

For `CCN(CC)CCC/N=c1\c2cc(OC)ccc2[nH]c2c([N+](=O)[O-])ccc(NCCCN(CC)CC)c12`, the GI50 is inactive: 1.48 µM.

Consider `CCOC(=O)C1C(=O)CC1(C)C` (stereo not drawn), for which the GI50 is inactive: > 10 µM.

In the case of `C[C@]12CC[C@H](O)CC1=CC[C@@H]1C2CC[C@]2(C)Nc3c(cnn3-c3ccccc3)CC12` (stereo partly drawn), the GI50 was inactive: 4.02 µM.

As to `CN(C)CC1(Cc2ccccc2)CC/C(=C\c2ccccc2)C1=O` (stereo not drawn), the GI50 is inactive: 58.6 µM.

Regarding `C/C(=N\NC(N)=S)c1cc(C)c(C)cc1C`, the GI50 was inactive: > 100 µM.

For the molecule `O=C1Nc2ccccc2/C1=N/N=c1\cccc[nH]1`, the GI50 was inactive: 20.3 µM.

As to `COC(=O)C(=O)C(C(=O)C(=O)Nc1ccc(F)cc1)c1nc2ccc([N+](=O)[O-])cc2nc1O` (stereo not drawn), the GI50 was inactive: > 100 µM.

As to `CCc1ccc(COC(=O)C2=C(C)NC(C)=C(C(=O)OCc3ccc(CC)cn3)C2C2=COCCO2)nc1`, the GI50 is inactive: 27.5 µM.

For `O=C(O)C1CCCCC1C(=O)Nc1nc2ccccc2[nH]1` (stereo not drawn), the GI50 was inactive: > 100 µM.

For the molecule `CC1=CC=C2c3ccccc3C=CN2C(=O)C1`, the GI50 is inactive: > 100 µM.

Take `O=C1CCCSC(=O)N1Cc1ccccc1`: the GI50 is inactive: > 100 µM.

As to `N#C[C@@H](c1ccccn1)c1ncccc1[N+](=O)[O-]`, the GI50 was inactive: > 100 µM.

With `Oc1ccc(Cl)cc1C1=Nn2c(COc3ccc4c(c3)CCCC4)nnc2SC1`, the GI50 is inactive: 22.9 µM.

On to `Cc1ccccc1NC(=O)C1C(=O)N(c2ccccc2C)C(=O)/C1=N\N` (stereo not drawn), for which the GI50 is inactive: > 100 µM.

As to `COc1ccccc1N/C(=C\C(=O)C(=O)NC12CC3CC(CC(C3)C1)C2)c1ccccc1`, the GI50 was inactive: > 10 µM.

Consider `CCCCCCCCCCCCCCCCCCNc1ccn(C2OC(COP(=O)(O)OCC3OC(n4cc(C)c(=O)[nH]c4=O)CC3O)C(O)C2O)c(=O)n1` (stereo not drawn), for which the GI50 was inactive: 18.7 µM.

Take `COC(=O)/C(=N/NC(C)(C)C)C(C(=O)OC)C(=O)C(=O)Nc1nc2ccc([N+](=O)[O-])cc2s1` (stereo not drawn): the GI50 is inactive: > 100 µM.

As to `COc1cc(=O)n2c3ccccc3n(C)c2c1C#N`, the GI50 is inactive: > 100 µM.

On to `CC1(C)N=C(N)N=C(N)N1c1ccc(CCCCCCc2ccc(S(=O)(=O)F)cc2)cc1`, for which the GI50 was inactive: 2.16 µM.

For `CNC1=C(C)C(=O)C(O)=C([C@H](C)CCC=C(C)C)C1=O`, the GI50 was inactive: 19.4 µM.

As to `NC(CC(=O)O)(Cc1ccccc1)C(=O)O` (stereo not drawn), the GI50 is inactive: > 100 µM.

For `COc1cccc2ccc3c(c12)C(=O)OC31CCc2c(C)cccc21` (stereo not drawn), the GI50 was inactive: 14.5 µM.

On to `O=c1[nH]n(Cc2ccccc2Cl)c2ccccc12`, for which the GI50 was inactive: > 100 µM.

`Cn1c(=S)[nH]c2sc3c(c2c1=O)CCSC3`: the GI50 was inactive: 26.2 µM.

On to `Cc1c(Cl)c(S(N)(=O)=O)cc2c1N=CNS2(=O)=O`, for which the GI50 is inactive: > 100 µM.

For `Nc1ccc2nc(Nc3ccc(F)cc3)cnc2c1`, the GI50 is inactive: > 100 µM.

As for `N#CC(NNC(=O)c1ccccc1O)c1c(O)ccc2ccccc12` (stereo not drawn), the GI50 was inactive: 4.05 µM.

In the case of `CN(C)CCNC(=O)c1cc(NC(=O)c2cc(NC(=O)CC/C=C3/[C@@H]4CC[C@H]3N=N4)cn2C)cn1C`, the GI50 is inactive: > 100 µM.

Regarding `COC1=CC(=O)N(C)C(O)C1(C#N)OC1OC(CO)C(O)C(O)C1O` (stereo not drawn), the GI50 was inactive: > 100 µM.

As for `Clc1cc(N/N=C(\c2ccccc2)c2ccccn2)ncn1`, the GI50 was active: 0.0679 µM.

`CCOC(=O)CC[C@H](NC(=O)c1nc[nH]c1[N+](=O)[O-])C(=O)OCC`: the GI50 was inactive: > 100 µM.

In the case of `CCCCOc1ccc(/C=C/C2=[N+](CCO)CCO2)cc1`, the GI50 is inactive: > 100 µM.

Take `COc1cc(/C=C2\N=C(c3ccccc3)N(/N=C/c3cc4cc(C)ccc4nc3Cl)C2=O)cc(OC)c1OC`: the GI50 was inactive: > 100 µM.

As for `NC(=O)N/N=C(/Cc1nc2ccc(C(=O)c3ccccc3)cc2nc1O)C(=O)Nc1ccc(C(F)(F)F)cc1[N+](=O)[O-]`, the GI50 is inactive: > 100 µM.

On to `CCc1nnc(S)n1/N=C/c1ccc(-c2ccc([N+](=O)[O-])cc2)o1`, for which the GI50 is inactive: > 100 µM.

Regarding `Cc1[nH]n(-c2nc(O)c(-c3ccccc3)c(=O)[nH]2)c(=O)c1CCO`, the GI50 was inactive: > 100 µM.

For the molecule `OC1C=C2C3CN(Cc4cc5c(cc43)OCO5)[C@H]2C[C@@H]1O` (stereo partly drawn), the GI50 was inactive: 5.26 µM.

In the case of `COC(=O)CCC(=O)N1Cc2cc(C)ccc2N(C(=O)CCC(=O)OC)Cc2cc(C)ccc21`, the GI50 is inactive: > 100 µM.

With `Cc1ccc(N2C(=O)C(O)=C(C(=O)C(C)(C)C)C2c2ccc([N+](=O)[O-])cc2)cc1` (stereo not drawn), the GI50 was inactive: 25 µM.

As for `C=C1c2nc3ccccc3n2C=C(c2ccccc2)N1c1ccc(C)cc1`, the GI50 was inactive: > 100 µM.

`CC(=O)N(C)SCC(NC(=O)C(Cc1ccccc1)NC(=O)OCc1ccccc1)C(=O)NC(Cc1ccccc1)C(=O)NC(Cc1cn(C=O)c2ccccc12)C(=O)NC(CCCCNC(=O)OCc1ccccc1)C(=O)NC(C(=O)NC(CSN(C)C(C)=O)C(=O)NO)C(C)OCc1ccccc1` (stereo not drawn): the GI50 is inactive: > 100 µM.

As to `CC(=O)/C=c1\[nH]/c(=C\C=C\c2ccccc2)c(=O)n1/C=C1\C(=O)Oc2ccccc2C1=O`, the GI50 was inactive: > 100 µM.

With `CCN(CC)CCNc1ccc2ncn3c4ccc(O)cc4c(=O)c1c23`, the GI50 is active: 1.04 µM.

`Nc1nc(SCC(=O)c2ccccc2)nc2nc3c(c(-c4ccccc4)c12)CCCC3`: the GI50 was inactive: 12.7 µM.

With `ClC(Cl)[Si]12OCCN(CCO1)CCO2`, the GI50 is inactive: > 100 µM.

Turning to `O=[N+]([O-])c1ccc(/C=N\N=c2/ccc([N+](=O)[O-])c[nH]2)cc1`, the GI50 is inactive: > 100 µM.

Turning to `CSc1ccc(/C=C2\N=C(c3ccccc3)N(c3nc4ccc(Sc5ccccc5)cc4[nH]3)C2=O)cc1`, the GI50 was inactive: 26.7 µM.

As to `O=c1[nH]c(-c2ccccc2)nc2cc(Cl)ccc12`, the GI50 was inactive: > 100 µM.

Consider `CN(C)CC1(C)CC/C(=C\c2ccc3c(c2)OCO3)C1=O` (stereo not drawn), for which the GI50 was inactive: > 100 µM.

In the case of `C=C1C(=O)O[C@H]2[C@@H]3O[C@@](C)(CC/C=C(\C)CCC[C@@H]2C)[C@H](O)C[C@@H]13`, the GI50 is inactive: 17.5 µM.

In the case of `O=C(O)CCC(=O)Nc1ccc2c(c1)S(=O)(=O)N(CC(=O)O)C2=O`, the GI50 was inactive: > 100 µM.

For the molecule `COc1cc(/C=N/NC(=O)c2c(Cl)c(Cl)c(Cl)c(Cl)c2-c2nc3cc(C(=O)c4ccccc4)ccc3[nH]2)ccc1O`, the GI50 was inactive: > 100 µM.

Turning to `Nc1n[n+](-c2ccccc2)no1`, the GI50 is inactive: > 100 µM.

On to `N#CC(C#N)=C1/C(=C/C=C/C=C/C=C/c2ccc(N3CCCCC3)s2)S(=O)(=O)c2ccccc21`, for which the GI50 is inactive: > 100 µM.

On to `CCOC(=O)C(C)c1nc2ccc(C(F)(F)F)cc2[nH]c1=O` (stereo not drawn), for which the GI50 is inactive: 67.6 µM.

`CC(=NNC(=S)Nc1cccc(C)c1)c1cccc(C(C)=NNC(=S)Nc2cccc(C)c2)n1`: the GI50 was inactive: 2.88 µM.

For the molecule `COC(=O)c1cc2ccccc2c2nc3ccccc3c(Cl)c12`, the GI50 is inactive: > 100 µM.

For the molecule `Cc1ccc(NC(=O)CC/C(CC(=O)c2ccc(Cl)cc2)=N\NC(=O)C(=O)NN)cc1C`, the GI50 is inactive: > 100 µM.

On to `CC(=O)OCC1OC(n2cc([N+](=O)[O-])c(=O)[nH]c2=O)C(OC(C)=O)C(OC(C)=O)C1OC(C)=O` (stereo not drawn), for which the GI50 is inactive: > 100 µM.

As to `C/C(=N\Nc1nc2ccccc2s1)c1cccc[n+]1[O-]`, the GI50 is inactive: 21.5 µM.

For `CC(C)=CC1C(C(=O)OCc2cc3c(cc2Cl)OCO3)C1(C)C` (stereo not drawn), the GI50 was inactive: > 100 µM.

On to `COC(=O)C1=C(OC(=O)/C(=C/c2c(F)cccc2F)c2ccccc2)C(C(=O)OC)[C@@]2(O)[C@@H](C(=O)OC)[C@H](C)C[C@@H]1[C@@H]2C(=O)OC` (stereo partly drawn), for which the GI50 is inactive: > 100 µM.

Regarding `Cc1cc(=O)oc2cc(OCCCOc3ccc4c(C)cc(=O)oc4c3)ccc12`, the GI50 is inactive: > 100 µM.

For the molecule `Cc1ccc(S(=O)(=O)NN=C2C(C)CC(C(C)(C)C)CC2C)cc1` (stereo not drawn), the GI50 is inactive: 18.1 µM.

For `N/C(=N\O)N/N=C/c1ccc2c(c1)OCO2`, the GI50 is inactive: 9.53 µM.

On to `CCOC(=O)C1Nc2ccc([N+](=O)[O-])cc2[C@H]2OCC[C@@H]12` (stereo partly drawn), for which the GI50 was inactive: > 100 µM.

Turning to `COc1cccc2c1C(=O)c1c(O)c3c(c(O)c1C2=O)C[C@@](O)(C(=O)CO)CC3OC1CC(NCCCC(OC(C)=O)OC(C)=O)C(O)C(C)O1` (stereo partly drawn), the GI50 was active: 0.0035 µM.

As for `CCOC(=O)C[C@@]12CCCNC1(C)CCc1ccccc12` (stereo partly drawn), the GI50 is inactive: > 100 µM.

For the molecule `CC(=O)C1C(=O)C(=O)N(c2ccc([N+](=O)[O-])cc2[N+](=O)[O-])C1=O` (stereo not drawn), the GI50 is inactive: > 100 µM.

`NC1=C2C(Br)=CN([C@@H]3O[C@H](CO)[C@@H](O)[C@@H]3O)C2C(=O)N=N1` (stereo partly drawn): the GI50 is inactive: 6.17 µM.

In the case of `CC(=O)O[C@H]1CC[C@@]2(C)[C@H](CC[C@@H]3[C@@H]2CC[C@]2(C)[C@@H](c4ccc(=O)oc4)C[C@H]4O[C@]342)C1`, the GI50 was active: 0.509 µM.

In the case of `COC(=O)c1nc(-c2ccc3c(n2)C(=O)C(=N)C(OC)=C3O)c(N)c(-c2ccc(OC)c(OC)c2O)c1C`, the GI50 is active: 0.809 µM.

The record behind these values is ChEMBL document CHEMBL1201862, “PubChem BioAssay data set” (2004).
